In the supplement of paper PMC3334620:
The full ranking holds about 33,000 sequences; the median of “E-score (-0.5 to 0.5)” is about -0.053, and the highest 2% start at about 0.37. Some of the results follow.

Target: Hap1 (UniProt P0CE41)
Test: PBM E-score (8-mer binding enrichment) (E-score (-0.5 to 0.5)); higher = stronger / more preferred TF binding; most listed sequences are background and not binding sites
Conditions: protein concentration: 200 nM; construct: GST-DNA-binding domain
In short: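 PURExpress in vitro transcription/translation supplied GST-tagged yeast transcription factors, either full-length or DNA-binding domain. Applied at about 100-200 nM to universal all-10-mer Agilent arrays double-stranded by primer extension, the bound protein was detected with fluorescent anti-GST. E-scores, modified Wilcoxon-Mann-Whitney statistics, were given by the Universal PBM Analysis Suite to ungapped eight-base words pooled with their reverse complements after masliner normalisation.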

Chain of UniProt P0CE41 (P0CE41 whole entry): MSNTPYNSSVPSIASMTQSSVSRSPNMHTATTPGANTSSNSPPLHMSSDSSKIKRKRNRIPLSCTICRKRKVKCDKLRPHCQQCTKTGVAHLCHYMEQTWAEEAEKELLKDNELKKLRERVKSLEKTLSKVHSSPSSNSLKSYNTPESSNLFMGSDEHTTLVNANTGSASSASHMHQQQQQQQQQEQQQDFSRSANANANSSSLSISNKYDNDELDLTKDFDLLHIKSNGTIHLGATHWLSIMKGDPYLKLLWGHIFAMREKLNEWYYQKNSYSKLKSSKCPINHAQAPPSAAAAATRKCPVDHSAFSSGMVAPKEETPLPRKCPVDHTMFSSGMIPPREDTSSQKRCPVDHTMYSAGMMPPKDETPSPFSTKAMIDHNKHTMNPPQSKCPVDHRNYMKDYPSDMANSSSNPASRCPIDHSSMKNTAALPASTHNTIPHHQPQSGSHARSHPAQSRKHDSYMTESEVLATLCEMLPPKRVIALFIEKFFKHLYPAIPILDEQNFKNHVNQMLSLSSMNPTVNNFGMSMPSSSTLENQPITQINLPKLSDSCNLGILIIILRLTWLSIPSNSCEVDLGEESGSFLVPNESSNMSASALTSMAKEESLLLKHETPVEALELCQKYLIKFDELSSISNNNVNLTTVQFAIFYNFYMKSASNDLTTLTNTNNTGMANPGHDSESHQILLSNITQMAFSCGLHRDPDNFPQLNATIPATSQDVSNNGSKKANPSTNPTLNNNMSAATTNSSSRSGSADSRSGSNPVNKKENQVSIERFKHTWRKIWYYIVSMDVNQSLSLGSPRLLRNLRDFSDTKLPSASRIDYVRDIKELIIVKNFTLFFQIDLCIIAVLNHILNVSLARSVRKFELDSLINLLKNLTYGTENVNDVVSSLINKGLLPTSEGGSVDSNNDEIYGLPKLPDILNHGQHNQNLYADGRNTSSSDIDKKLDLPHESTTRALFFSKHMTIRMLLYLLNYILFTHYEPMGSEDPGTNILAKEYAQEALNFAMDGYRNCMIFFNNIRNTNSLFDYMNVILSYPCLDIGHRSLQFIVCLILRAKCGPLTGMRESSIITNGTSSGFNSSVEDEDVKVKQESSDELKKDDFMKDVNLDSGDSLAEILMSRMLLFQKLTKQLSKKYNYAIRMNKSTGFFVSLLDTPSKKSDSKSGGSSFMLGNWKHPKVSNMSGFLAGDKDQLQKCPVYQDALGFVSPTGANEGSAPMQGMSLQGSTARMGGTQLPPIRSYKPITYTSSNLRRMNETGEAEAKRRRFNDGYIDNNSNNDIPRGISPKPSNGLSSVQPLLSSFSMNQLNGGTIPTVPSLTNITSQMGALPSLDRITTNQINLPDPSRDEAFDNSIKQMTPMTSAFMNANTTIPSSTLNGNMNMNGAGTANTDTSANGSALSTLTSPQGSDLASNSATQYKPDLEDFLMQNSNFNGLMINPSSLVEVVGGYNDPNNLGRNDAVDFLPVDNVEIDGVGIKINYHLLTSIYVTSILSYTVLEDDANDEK

Row | Sequence | PBM E-score
1 | CGTTCGCA | -0.252
2 | ACTGCGGC | 0.109
3 | CGGTTGCC | 0.139
4 | CGGAATAG | 0.245
5 | TATCTTCA | -0.164
6 | AATGTTAG | -0.156
7 | CACAAGCG | -0.186
8 | GCTCCTGA | 0.156
9 | GAGAGAAC | -0.174
10 | ACTGGAAT | -0.223
11 | CGCAGGGC | -0.0256
12 | CACAACTA | 0.0154
13 | ATGGTTGA | -0.104
14 | ACGGCCAC | 0.109
15 | CGCGTGGC | -0.0903
16 | AATTCAGG | 0.049
17 | CTCACAAA | -0.0838
18 | AATCAATG | -0.0446
19 | GGTGCTAA | 0.156
20 | GTGTGAGA | -0.197
21 | AATCTACG | 0.0904
22 | TAACAATA | -0.0812
23 | CAGTGTAC | -0.267
24 | CCAACAAC | -0.106
25 | AAGCGCCG | 0.31

Row | Sequence | PBM E-score
26 | GATCTTGA | -0.183
27 | GGACGAAA | 0.273
28 | CCTCTACA | -0.219
29 | AAAGTTGA | -0.192
30 | ATGTTTGG | -0.111
31 | AGGCTCAC | -0.263
32 | CTTCGGAA | 0.403
33 | ATACTTCG | 0.108
34 | GACCCCCC | -0.13
35 | AGCATTTC | -0.0617
36 | CACTTAAA | -0.109
37 | TAAAAGCA | -0.0225
38 | AGAATAAT | -0.212
39 | TCTTGGAA | -0.163
40 | AGGCCACC | -0.0824
41 | CATAATAC | -0.197
42 | CAGATATG | 0.0423
43 | ATTCTAGC | -0.151
44 | TCAAAGAA | -0.264
45 | GTGGGTTA | -0.0914
46 | GCCATGCC | 0.0116
47 | GCATTGGA | -0.0858
48 | GAAGGGTA | -0.0884
49 | ATACTAAT | 0.0383
50 | ATGTGGGC | -0.135

Row | Sequence | PBM E-score
51 | CATTACGC | 0.196
52 | ACGGACGG | 0.244
53 | CGATAGGA | 0.307
54 | CACAGCTA | -0.154
55 | AATCCCAC | 0.0469
56 | GCTCCAGA | -0.123
57 | CCCCAGCC | -0.0737
58 | CGTCGCCC | 0.00024
59 | CAGGTGGG | -0.0119
60 | CAAGATAC | -0.12
61 | ATAAGCAT | -0.149
62 | ATGTATAA | -0.144
63 | ATGGAAGA | -0.0903
64 | AAGCGATG | -0.0584
65 | GGAGATTA | 0.31
66 | GAAAACAA | -0.0224
67 | TGGGCCAA | -0.117
68 | AGCCGACA | 0.133
69 | CTATCTCC | 0.358
70 | CGGTGATC | 0.26
71 | TGAACGCA | -0.176
72 | AATCTTCG | 0.0766
73 | AATCCTCC | 0.106
74 | ACGGCTGA | -0.0931
75 | CCTTCTTC | -0.12

Row | Sequence | PBM E-score
76 | AGCGACAC | -0.0119
77 | AACTGTCG | -0.058
78 | ATGCAGTG | -0.169
79 | AATTCGCT | 0.0644
80 | AGCGTGAG | -0.268
81 | ACCTTCCA | -0.0446
82 | AGGGCTTA | -0.203
83 | ACGACCTA | -0.107
84 | GGACTCCC | 0.0888
85 | AAATACAG | -0.147
86 | GATATGAC | 0.194
87 | AATGTGGT | -0.0583
88 | CGGACTCA | 0.347
89 | TAACAAGA | -0.0971
90 | AATAACCC | 0.19
91 | CTCTATAC | -0.191
92 | AGCGCTAA | 0.0794
93 | AAGTTAAG | -0.0352
94 | ATTAGTGG | -0.0345
95 | ACCGTTTA | 0.138
96 | AGACCTAA | -0.227
97 | CAATCCCC | 0.17
98 | TCTAGAAA | -0.18
99 | TAATACGA | -0.0705
100 | AGTCTACA | -0.195

Row | Sequence | PBM E-score
101 | AGGGGGCG | -0.219
102 | CAACTGTG | -0.173
103 | ATACTCAA | 0.00135
104 | CATACGAC | -0.15
105 | CTCCAACA | -0.111
106 | CATTAGGC | -0.143
107 | AGTTCAAC | -0.0128
108 | CATGCCGA | 0.17
109 | AGACTAAC | -0.0545
110 | ACCGTAAC | 0.138
111 | AACCAGAT | -0.0104
112 | GGGAGTTA | 0.247
113 | CGGACCAA | 0.383
114 | CGGGTCTC | 0.192
115 | TGCTCGAA | -0.127
116 | CCCTAAAC | -0.0256
117 | ATAGAATG | -0.105
118 | CGCGAGCA | -0.126
119 | GTTTCTGA | 0.0004
120 | GGCCTGCA | -0.0802
121 | ATACTTAG | -0.123
122 | AGTTTTCG | 0.141
123 | GGGGCAAC | -0.0958
124 | CCCTCATA | -0.267
125 | CTAAACGC | 0.109

Row | Sequence | PBM E-score
126 | GCATGGGC | -0.157
127 | TACCACCA | 0.0011
128 | ATTTCTGA | -0.255
129 | AAGCCCCC | 0.104
130 | TATAGATA | -0.258
131 | CTGGGTCA | -0.057
132 | ATTGTAAA | -0.0306
133 | ATTCAACG | 0.0652
134 | ACCTATAC | -0.202
135 | ATGGACTC | -0.019
136 | TCACGCAA | -0.0399
137 | CGTCACTC | 0.00776
138 | AGGGGCTA | -0.233
139 | CGTGCCAA | -0.144
140 | AGTGGTGG | -0.273
141 | GAGCTGTA | -0.189
142 | CCCTGTTA | -0.123
143 | GGCGGCAC | 0.202
144 | CATGTGCG | -0.131
145 | AAATAAAT | 0.159
146 | CTGCCGAC | 0.133
147 | ACATAAAA | -0.188
148 | AAATCAGA | -0.113
149 | CAACCTGG | -0.172
150 | CCCCGGAA | 0.272

Row | Sequence | PBM E-score
151 | AACAGTGG | -0.019
152 | ATCTTTCG | -0.0668
153 | CCTACCCC | 0.0697
154 | GATAGTAC | 0.0622
155 | ACCAATCA | -0.0506
156 | GTCTTTCA | -0.14
157 | ACAGACAT | -0.156
158 | ACGTTTGC | -0.137
159 | TACCATGA | -0.347
160 | AGGGCCCG | 0.106
161 | CTGATAAG | -0.151
162 | CCGTCATA | 0.189
163 | CAATTAGC | -0.0151
164 | ACACTTTA | -0.0855
165 | ACGTCGAT | -0.111
166 | ACTAACTC | 0.018
167 | ACTTGTCT | -0.227
168 | ATTCTCCA | -0.157
169 | AGACGGGA | -0.134
170 | CCCCCACA | -0.227
171 | CCACGCCC | 0.0955
172 | AAGCGGAC | 0.265
173 | AACCGCTT | -0.0269
174 | ATTCGCTG | -0.0586
175 | ATCGGGAG | 0.192

Row | Sequence | PBM E-score
176 | GACCGCGC | 0.196
177 | CGAGAAAC | 0.187
178 | ACGGTGAC | -0.112
179 | ATCGACAC | -0.179
180 | CTTCACAA | -0.207
181 | ACAATGAG | -0.167
182 | CCACGCTC | -0.156
183 | GCGAAGTA | 0.174
184 | ACCGGGGC | 0.291
185 | CACGGTGG | -0.0434
186 | CCTCAAAG | -0.204
187 | AGGGTCGA | 0.0991
188 | AGCAGTGA | 0.0848
189 | AACTGTCT | -0.106
190 | CCGTTTAG | 0.166
191 | ATGGTGGA | -0.136
192 | GCTGGTCA | -0.193
193 | ATATGCAG | -0.187
194 | AAGCGTTA | 0.0381
195 | ATTTAGAG | -0.00094
196 | GCCCTTCC | -0.0887
197 | CAATTTGC | -0.103
198 | ACCTCAGT | -0.139
199 | AGTGAGTC | -0.18
200 | GTAGCAGA | -0.141

Row | Sequence | PBM E-score
201 | CCCCCAAC | -0.276
202 | ACCCCGCG | 0.209
203 | AAGGAAGC | -0.199
204 | TAGAACCA | -0.217
205 | GACGCCAC | -0.0231
206 | ATCGGACC | 0.4
207 | GTGCTGGA | -0.0951
208 | CTAGATGA | -0.146
209 | CAGGCACA | -0.192
210 | AGAGGTGC | -0.149
211 | GTAATAAC | 0.00686
212 | GAGGTTTA | -0.0325
213 | ACGCTAAC | -0.165
214 | GCGACCGC | 0.173
215 | ATGCCGGC | 0.287
216 | GCAAGATA | -0.0876
217 | CCTGTGGA | -0.336
218 | AGGTCCTA | -0.134
219 | GCTTGGTA | -0.227
